For assay [1], the system named is RAW-Dual. Put plainly: NF-kB SEAP reporter activity, fold change vs agonist alone; higher = enhanced NF-kB activity. In outline: (§1)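 Supernatant from RAW-Dual macrophages was read after 20 hours for IRF by QuantiLuc luminescence and for NF-κB by QuantiBlue absorbance at 620 nm. The cells (50,000 cells/well in DMEM, 384-well plates, 37 °C, 5% CO2) had received 50 nL of library stock by pin tool and, 1 h later, a PRR agonist. Reporter activity is expressed relative to agonist-alone wells as fold change, and wells were flagged cytotoxic if IncuCyte confluency was under 70% of agonist controls in both mask sets.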

Assay [2] has as its system RAW-Dual. As to the kind of experiment: NF-kB SEAP reporter activity, fold change vs agonist alone; cytotoxicity flag (confluency mask): not cytotoxic; higher = enhanced NF-kB activity. An outline of the steps:
as §1

Assay [3] relates to RAW-Dual. Put plainly: NF-kB SEAP reporter activity, fold change vs agonist alone; cytotoxicity flag (confluency mask): cytotoxic (confluency <70% of control); higher = enhanced NF-kB activity. An outline of the steps: as §1
[4] abbreviates: library stock concentration (final ~1000-fold dilution): 2 mM, cytotoxicity flag (confluency mask): not cytotoxic, agonist: Imiquimod (TLR7) […].
Setting [5] is: library stock concentration (final ~1000-fold dilution): 2 mM, cytotoxicity flag (confluency mask): not cytotoxic, agonist: MPLA (TLR4) […].
Where [6] appears, read: agonist: ODN 1826 (TLR9) 0.5 ug/mL.
Setting [7] is: agonist: Pam2CSK4 (TLR2/6) 0.1 ug/mL.
Where [8] appears, read: agonist: Pam3CSK4 (TLR2/1) 0.1 ug/mL.
Where [9] appears, read: library stock concentration (final ~1000-fold dilution): 10 mM, cytotoxicity flag (confluency mask): not cytotoxic, agonist: Imiquimod (TLR7) […].
Where [10] appears, read: library stock concentration (final ~1000-fold dilution): 10 mM, cytotoxicity flag (confluency mask): not cytotoxic, agonist: MPLA (TLR4) […].

Several values for one entry are separate records, joined by “and”; a condition that tells them apart may be missing. Equal values may be shown once. In all, about 2,900 compounds were measured (“NF-kB SEAP reporter activity, fold change vs agonist alone”: median about 0.99, highest 2% from about 2.6 on). This is one part of the list.

Regarding `C=C(C)C1CCC2(C(=O)OC3OC(COC4OC(CO)C(OC5OC(C)C(O)C(O)C5O)C(O)C4O)C(O)C(O)C3O)CCC3(C)C(CCC4C5(C)CCC(OC6OCC(O)C(O)C6OC6OC(C)C(O)C(O)C6O)C(C)(CO)C5CCC43C)C12` (centres undefined), the results for the “NF-kB SEAP reporter activity” value in the assay with RAW-Dual [1] (setting [4]) and in the assay on RAW-Dual [1] (setting [5]) were 0.946 and 1.07, respectively.
Take `C=C(C)C1CCC2(C(=O)OC3OC(COC4OC(CO)C(OC5OC(C)C(O)C(O)C5O)C(O)C4O)C(O)C(O)C3O)CCC3(C)C(CCC4C5(C)CCC(OC6OCC(O)C(O)C6OC6OC(C)C(O)C(O)C6O)C(C)(CO)C5CCC43C)C12` (centres undefined) (library stock concentration (final ~1000-fold dilution): 2 mM): the “NF-kB SEAP reporter activity” value with RAW-Dual [2] (agonist: LPS (TLR4) 0.1 ug/mL) was 1; with RAW-Dual [2] (setting [6]), 1.09; in the assay with RAW-Dual [2] (setting [7]) it was 1.17; in the assay with RAW-Dual [2] (setting [8]) it was 1.16.
On to `Nc1ncnc2c1c(-c1cccc(OCc3ccccc3)c1)cn2C1CC(CN2CCCC2)C1` (centres undefined) (library stock concentration (final ~1000-fold dilution): 10 mM), for which the “NF-kB SEAP reporter activity” value in the assay on RAW-Dual [2] (agonist: LPS (TLR4) 0.1 ug/mL) worked out at 0.239; with RAW-Dual [2] (setting [6]), 0.283; with RAW-Dual [2] (setting [7]) it was 0.401; with RAW-Dual [2] (setting [8]), 0.701.
`Nc1ncnc2c1c(-c1cccc(OCc3ccccc3)c1)cn2C1CC(CN2CCCC2)C1` (centres undefined): the “NF-kB SEAP reporter activity” value with RAW-Dual [1] (setting [9]) turned out to be 1.13; in the assay on RAW-Dual [1] (setting [10]) it was 0.975.
`CNC(=O)CN1CCC(Oc2cc3c(Nc4cccc(Cl)c4F)ncnc3cc2OC)CC1`: the “NF-kB SEAP reporter activity” value in the assay on RAW-Dual [1] (setting [9]) amounted to 0.727; with RAW-Dual [1] (setting [10]), 1.58.
In the case of `CNC(=O)CN1CCC(Oc2cc3c(Nc4cccc(Cl)c4F)ncnc3cc2OC)CC1` (library stock concentration (final ~1000-fold dilution): 10 mM), the “NF-kB SEAP reporter activity” value in the assay on RAW-Dual [2] (agonist: LPS (TLR4) 0.1 ug/mL) came out at 1.86; in the assay on RAW-Dual [2] (setting [6]), 0.866; with RAW-Dual [2] (setting [7]), 0.646; with RAW-Dual [2] (setting [8]), 1.14.
In the case of `Nc1nc(N)nc(-c2cc(Cl)ccc2Cl)n1`, the “NF-kB SEAP reporter activity” value in the assay on RAW-Dual [1] (setting [4]) was 0.858; in the assay on RAW-Dual [1] (setting [5]), 1.09.
As to `Nc1nc(N)nc(-c2cc(Cl)ccc2Cl)n1` (library stock concentration (final ~1000-fold dilution): 2 mM), the “NF-kB SEAP reporter activity” value in the assay with RAW-Dual [2] (agonist: LPS (TLR4) 0.1 ug/mL) turned out to be 1.41; in the assay on RAW-Dual [2] (setting [6]), 1.28; with RAW-Dual [2] (setting [7]), 1.21; in the assay on RAW-Dual [2] (setting [8]), 1.26.
Turning to `CCN1CCCC1CNC(=O)c1cc(S(=O)(=O)CC)c(N)cc1OC` (centres undefined), the “NF-kB SEAP reporter activity” value in the assay with RAW-Dual [1] (setting [9]) worked out at 1.03; in the assay with RAW-Dual [1] (setting [10]), 1.06.
For the compound `CCN1CCCC1CNC(=O)c1cc(S(=O)(=O)CC)c(N)cc1OC` (centres undefined) (library stock concentration (final ~1000-fold dilution): 10 mM), the “NF-kB SEAP reporter activity” value in the assay on RAW-Dual [2] (agonist: LPS (TLR4) 0.1 ug/mL) worked out at 1.02; with RAW-Dual [2] (setting [6]), 1.01; with RAW-Dual [2] (setting [7]), 1.05; with RAW-Dual [2] (setting [8]) it was 1.04.
In the same order, the values of `COc1cc(N)c(Cl)cc1C(=O)NC1CCN(Cc2ccccc2)CC1` (library stock concentration (final ~1000-fold dilution): 10 mM) are 0.993, 0.668, 0.963 and 1.11.
For `COc1cc(N)c(Cl)cc1C(=O)NC1CCN(Cc2ccccc2)CC1`, the “NF-kB SEAP reporter activity” value was 1.28 with RAW-Dual [1] (setting [9]) and 1.16 in the assay on RAW-Dual [1] (setting [10]).
Regarding `O=S(=O)(NCCN1CCNCC1)c1ccc(NC2CCCCC2)c(NCc2ccccc2)c1` (library stock concentration (final ~1000-fold dilution): 10 mM), the “NF-kB SEAP reporter activity” value turned out to be 1.57 in the assay on RAW-Dual [3] (agonist: LPS (TLR4) 0.1 ug/mL), 1.13 in the assay on RAW-Dual [3] (setting [6]), 1.04 with RAW-Dual [3] (setting [7]) and 1.73 with RAW-Dual [3] (setting [8]).
For `O=S(=O)(NCCN1CCNCC1)c1ccc(NC2CCCCC2)c(NCc2ccccc2)c1`, the “NF-kB SEAP reporter activity” value turned out to be 1.27 with RAW-Dual [1] (library stock concentration (final ~1000-fold dilution): 10 mM, cytotoxicity flag (confluency mask): cytotoxic (confluency <70% of control), agonist: Imiquimod (TLR7) […]) and 2.03 with RAW-Dual [1] (library stock concentration (final ~1000-fold dilution): 10 mM, cytotoxicity flag (confluency mask): cytotoxic (confluency <70% of control), agonist: MPLA (TLR4) […]).
`O=C(Nc1cc(Cl)cc2c1[nH]c1cnccc12)c1cccnc1` (library stock concentration (final ~1000-fold dilution): 10 mM): the “NF-kB SEAP reporter activity” value in the assay on RAW-Dual [2] (agonist: LPS (TLR4) 0.1 ug/mL) was 0.856 and 0.725; in the assay with RAW-Dual [2] (setting [6]) it was 0.62 and 0.497; in the assay on RAW-Dual [2] (setting [7]) it was 0.406 and 0.309; in the assay with RAW-Dual [2] (setting [8]) it was 0.547 and 0.384.
Turning to `COc1cc(OC)c(C=CS(=O)(=O)Cc2ccc(OC)c(NCC(=O)O)c2)c(OC)c1`, the “NF-kB SEAP reporter activity” value with RAW-Dual [1] (setting [9]) was 2.64; with RAW-Dual [1] (setting [10]), 2.27.
For `COc1cc(OC)c(C=CS(=O)(=O)Cc2ccc(OC)c(NCC(=O)O)c2)c(OC)c1` (library stock concentration (final ~1000-fold dilution): 10 mM), the “NF-kB SEAP reporter activity” value is 4.24 with RAW-Dual [2] (agonist: LPS (TLR4) 0.1 ug/mL), 3.24 in the assay with RAW-Dual [2] (setting [6]), 2.21 in the assay with RAW-Dual [2] (setting [7]) and 2.56 in the assay on RAW-Dual [2] (setting [8]).
For `COC1CC2CCC(C)C(O)(O2)C(=O)C(=O)N2CCCCC2C(=O)OC(C(C)CC2CCC(OC(=O)C(C)(CO)CO)C(OC)C2)CC(=O)C(C)C=C(C)C(O)C(OC)C(=O)C(C)CC(C)C=CC=CC=C1C` (centres undefined) (library stock concentration (final ~1000-fold dilution): 10 mM), the “NF-kB SEAP reporter activity” value in the assay with RAW-Dual [2] (agonist: LPS (TLR4) 0.1 ug/mL) was 3.85; in the assay with RAW-Dual [2] (setting [6]), 3.11; in the assay on RAW-Dual [2] (setting [7]), 1.33; with RAW-Dual [2] (setting [8]), 2.09.
As for `COC1CC2CCC(C)C(O)(O2)C(=O)C(=O)N2CCCCC2C(=O)OC(C(C)CC2CCC(OC(=O)C(C)(CO)CO)C(OC)C2)CC(=O)C(C)C=C(C)C(O)C(OC)C(=O)C(C)CC(C)C=CC=CC=C1C` (centres undefined), the figures for the “NF-kB SEAP reporter activity” value with RAW-Dual [1] (setting [9]) and in the assay with RAW-Dual [1] (setting [10]) were 2.36 and 2.41, respectively.
As to `COc1cc(N2CCC(N3CCN(C)CC3)CC2)ccc1Nc1ncc(Cl)c(Nc2ccccc2S(=O)(=O)C(C)C)n1` (library stock concentration (final ~1000-fold dilution): 2 mM), the “NF-kB SEAP reporter activity” value amounted to 1.66 with RAW-Dual [2] (agonist: LPS (TLR4) 0.1 ug/mL), 0.603 in the assay on RAW-Dual [2] (setting [6]), 0.757 with RAW-Dual [2] (setting [7]) and 1.2 in the assay with RAW-Dual [2] (setting [8]).
On to `COc1cc(N2CCC(N3CCN(C)CC3)CC2)ccc1Nc1ncc(Cl)c(Nc2ccccc2S(=O)(=O)C(C)C)n1`, for which the “NF-kB SEAP reporter activity” value in the assay with RAW-Dual [1] (setting [4]) turned out to be 1.28; with RAW-Dual [1] (setting [5]) it was 0.939.
With `CC1CCc2cc(F)cc3c(=O)c(C(=O)O)cn1c23` (centres undefined) (library stock concentration (final ~1000-fold dilution): 10 mM), the “NF-kB SEAP reporter activity” value in the assay with RAW-Dual [2] (agonist: LPS (TLR4) 0.1 ug/mL) amounted to 1.02; in the assay with RAW-Dual [2] (setting [6]), 0.966; in the assay with RAW-Dual [2] (setting [7]), 0.993; in the assay on RAW-Dual [2] (setting [8]), 0.838.
On to `CC1CCc2cc(F)cc3c(=O)c(C(=O)O)cn1c23` (centres undefined), for which the “NF-kB SEAP reporter activity” value came to 0.483 in the assay on RAW-Dual [1] (setting [9]) and 0.674 with RAW-Dual [1] (setting [10]).
In the case of `COc1ccccc1OCCNCC(O)COc1cccc2[nH]c3ccccc3c12` (centres undefined) (library stock concentration (final ~1000-fold dilution): 10 mM), the “NF-kB SEAP reporter activity” value in the assay on RAW-Dual [2] (agonist: LPS (TLR4) 0.1 ug/mL) was 0.6 and 0.708; with RAW-Dual [2] (setting [6]), 0.185 and 0.196; with RAW-Dual [2] (setting [7]), 0.801 and 0.766; with RAW-Dual [2] (setting [8]) it was 0.633 and 0.714.
